± gives the standard deviation of the averaged measurements. Whole data set: some 4,100 sequences, median “relative kcat/Km (krel) vs genomic leader AAAGAU” near 1.7, cut for the highest 2% near 6.5. The list shows a part of the results, in another mix than the full data.
Target: T1, E. coli RNase P holoenzyme (M1 P RNA + rnpA protein) (UniProt P0A7Y8)
T1 sequence: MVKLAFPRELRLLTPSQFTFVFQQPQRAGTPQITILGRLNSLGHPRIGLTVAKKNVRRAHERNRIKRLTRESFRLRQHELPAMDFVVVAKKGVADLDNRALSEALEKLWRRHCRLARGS
Test: relative kcat/Km (krel) vs genomic leader AAAGAU (relative (reference leader = 1)); higher = faster RNase P cleavage
Experimental: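 HTS-Kin: a pool of ptRNA-Met (21C construct) with all 4096 combinations of 5' leader nucleotides N(-6) to N(-1) was processed in vitro by E. coli RNase P (P RNA + rnpA/C5 protein) under multiple-turnover conditions at 37 C, pH 8, 17.5 mM MgCl2. Residual substrate was Illumina-sequenced at several fractions reacted, and relative kcat/Km (krel) was computed by internal competition kinetics, calibrated to the genomic leader (AAAGAU = 1). The listed hexamer is the varied N(-6)..N(-1) leader (DNA letters), and it sits between a fixed 5' stem-loop flank (GCAUGCACGAAAGUGCGUGCUAUGAA) and the mature tRNA-Met starting GGCUACGUAGCUCAGUUGG. Two technical replicates are averaged.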

[1] = fraction of substrate reacted: ~9-10% (9.79% repeat 1, 9.1% repeat 2)
[2] = fraction of substrate reacted: ~26-29% (28.66% repeat 1, 26.4% repeat 2)
[3] = fraction of substrate reacted: ~13-16% (15.68% repeat 1, 13.17% repeat 2)

Row | Sequence | relative kcat/Km [1] | relative kcat/Km [2] | relative kcat/Km [3]
1 | CGGACG | 1.05 ± 1.1 | 0.906 ± 0.41 | –
2 | GCAGAA | – | 1.61 ± 0.17 | 1.37 ± 1.1
3 | ATATTC | 2.33 ± 1 | 3.4 ± 1.6 | 2.43 ± 0.22
4 | CATACG | – | 1.46 ± 0.63 | –
5 | GACTTT | 2.81 ± 0.56 | 6.45 ± 3.2 | 4.5 ± 0.87
6 | CTAGCC | 0.965 ± 0.36 | 1.28 ± 0.23 | 1.49 ± 0.74
7 | GTCACC | 3.43 ± 0.98 | – | 4.83 ± 0.44
8 | AATTTC | 2.12 ± 0.34 | 2.43 ± 0.8 | 2.27 ± 0.84
9 | GGGAAA | 2.05 ± 1.2 | 2.12 ± 0.69 | 1.63 ± 0.29
10 | AATGTC | – | 1.45 ± 0.34 | 1.21 ± 0.24
11 | AACACG | – | 2.2 ± 0.65 | 0.759 ± 0.32
12 | TGAACA | 1.16 ± 0.43 | 1.69 ± 0.24 | 1.34 ± 0.41
13 | GACAGT | – | 2.04 ± 1.8 | –
14 | AGCGCC | 1.8 ± 0.34 | 3.41 ± 1 | 2.6 ± 0.7
15 | AGACGA | 2.74 ± 1.4 | 3.91 ± 1.5 | 2.42 ± 0.11
16 | GAGGCA | – | 0.75 ± 0.044 | 1.04 ± 1
17 | GCCTGT | – | 1.64 ± 0.79 | –
18 | CAGAGC | 1.09 ± 0.4 | 1.76 ± 0.23 | 1.56 ± 0.32
19 | ACTTTT | 1.91 ± 0.69 | 3.25 ± 1.3 | 2.24 ± 0.19
20 | CATATA | 2.3 ± 0.95 | 3.14 ± 1.2 | 2.374 ± 0.0066
21 | AACAAC | 2.99 ± 0.85 | 4.45 ± 1.8 | 3.22 ± 0.17
22 | TTTCCC | 1.91 ± 0.45 | 2.47 ± 0.92 | 1.91 ± 0.14
23 | TCCGTT | 1.84 ± 0.88 | 2.78 ± 1.2 | 2.08 ± 0.3
24 | ATATAG | 2.16 ± 1.9 | 3.88 ± 1.4 | 1.77 ± 0.48
25 | TTTACT | 2.32 ± 0.92 | 3.43 ± 1.1 | 2.36 ± 0.14
26 | TCAAGA | 2.15 ± 0.26 | 3.47 ± 1.4 | 2.33 ± 0.33

Row | Sequence | relative kcat/Km [1] | relative kcat/Km [2] | relative kcat/Km [3]
27 | TACCCA | 1.41 ± 0.63 | 3.27 ± 1.1 | 1.94 ± 0.16
28 | TAAACT | 1.46 ± 1 | 1.67 ± 0.7 | 1.02 ± 0.1
29 | CTACAC | 2.87 ± 1.7 | 4.74 ± 1.4 | 3 ± 0.59
30 | AGAAAG | 1.38 ± 1.3 | 2.2 ± 0.47 | 1.14 ± 0.7
31 | GCGTGG | – | 0.939 ± 0.64 | –
32 | ATATTG | – | 1.66 ± 0.11 | 0.335 ± 0.075
33 | TCTGCA | 1.56 ± 1.2 | 2.27 ± 0.57 | 1.61 ± 0.14
34 | CATAGA | 2.55 ± 0.11 | 5.03 ± 2.4 | 3.96 ± 1.3
35 | TACCGA | 2.83 ± 0.7 | – | 4.89 ± 1.1
36 | GTGTAT | 2.27 ± 0.1 | 3.07 ± 1.1 | 2.36 ± 0.42
37 | CGAGCC | 1.44 ± 0.36 | 1.77 ± 0.032 | 1.17 ± 0.82
38 | GATCGC | 2.14 ± 0.16 | 4.01 ± 1.8 | 2.81 ± 0.81
39 | CGAAGT | – | 1.2 ± 0.67 | –
40 | GGAATT | 1.51 ± 0.21 | 2.16 ± 1 | 1.6 ± 0.24
41 | CAATTC | 1.87 ± 0.93 | 2.4 ± 0.83 | 1.98 ± 0.16
42 | TGGGGT | – | 1.83 ± 0.45 | –
43 | GGTCCT | 1.77 ± 0.79 | 2.22 ± 0.74 | 1.83 ± 0.89
44 | TCTCCT | 2.25 ± 0.95 | 2.5 ± 0.3 | 1.9 ± 0.053
45 | GACGTC | 2.13 ± 1 | 3.4 ± 1.2 | 2.6 ± 1.1
46 | AAAATC | 2.07 ± 0.94 | 1.37 ± 0.15 | 1.14 ± 0.28
47 | AAGGCA | – | 0.678 ± 0.092 | 1.05 ± 0.51
48 | AGCTTT | 2.79 ± 1.2 | 4.09 ± 1.6 | 2.71 ± 0.49
49 | CCCCTT | 2.65 ± 0.41 | 3.36 ± 1.2 | 2.88 ± 0.43
50 | GCTGTT | 1.12 ± 0.26 | 0.627 ± 0.24 | –
51 | TTACAC | 4.14 ± 1.9 | 6.4 ± 2.5 | 4.92 ± 0.61
52 | ATATGA | 2.93 ± 0.85 | 5.34 ± 1.6 | 3.32 ± 0.72

Row | Sequence | relative kcat/Km [1] | relative kcat/Km [2] | relative kcat/Km [3]
53 | CTCCGT | – | 2.01 ± 1.7 | 1.79 ± 1.2
54 | CGTAAC | 2.79 ± 0.54 | 5.46 ± 2.1 | 4.08 ± 1.1
55 | GCACCG | 0.695 ± 0.23 | 0.963 ± 0.12 | –
56 | ACTGTA | 1.45 ± 0.27 | 1.12 ± 0.057 | 1.29 ± 0.12
57 | ACGTGC | 1.66 ± 0.76 | 2.28 ± 1.5 | 1.41 ± 1.2
58 | TAGCCT | 1.54 ± 0.86 | 2.55 ± 0.89 | 1.95 ± 0.32
59 | GACTTC | 3.65 ± 0.53 | 6.22 ± 3.3 | 4.38 ± 2.1
60 | GCTACC | 1.6 ± 0.53 | 2.31 ± 0.92 | 1.34 ± 0.49
61 | GCTTTA | 1.33 ± 0.25 | 1.68 ± 0.49 | 1.52 ± 0.15
62 | GTAACA | 1.33 ± 0.56 | 1.99 ± 1.2 | 1.4 ± 0.41
63 | TGTTTC | 2.54 ± 0.42 | 4.55 ± 1.5 | 3.17 ± 0.83
64 | CTCTTG | 2.31 ± 1.9 | 3.11 ± 0.5 | 1.64 ± 0.35
65 | AATTCG | – | 1.23 ± 0.13 | 0.511 ± 0.23
66 | GGGAGG | – | 1.63 ± 0.17 | 0.486 ± 0.34
67 | GCTTCT | 2.03 ± 0.7 | 2.42 ± 0.6 | 1.955 ± 0.018
68 | GCTATA | 1.48 ± 0.45 | 2.16 ± 0.77 | 1.55 ± 0.19
69 | TCGTCA | 2.78 ± 1.8 | 3.63 ± 1.3 | 2.51 ± 0.12
70 | GTTTAC | 3.75 ± 0.76 | 7.14 ± 3 | 4.65 ± 0.88
71 | ATAAAA | 1.66 ± 0.62 | 2.9 ± 1.3 | 1.91 ± 0.26
72 | AATCTA | 1.56 ± 0.87 | 1.87 ± 0.29 | 1.78 ± 0.38
73 | GAACGG | 0.335 ± 0.15 | 0.467 ± 0.29 | –
74 | AGCCCC | 2.38 ± 0.6 | 2.49 ± 0.43 | 2.27 ± 0.35
75 | TAGCAC | 2.83 ± 0.95 | 4.7 ± 2.2 | 2.84 ± 1.8
76 | CCTAGG | – | 0.794 ± 0.77 | –
77 | CTGGTT | 0.626 ± 0.35 | 0.983 ± 0.93 | –
78 | GGCTAC | 1.69 ± 1.4 | 2.81 ± 1.3 | 1.98 ± 0.51

Row | Sequence | relative kcat/Km [1] | relative kcat/Km [2] | relative kcat/Km [3]
79 | GGTCAA | 0.981 ± 0.11 | 1.83 ± 1.1 | 1.45 ± 0.14
80 | CTGCAC | 1.99 ± 0.74 | 2.55 ± 1 | 1.73 ± 0.084
81 | GTTACC | 1.71 ± 0.9 | 2.36 ± 0.55 | 1.91 ± 0.26
82 | GTACCC | 1.91 ± 0.18 | 2.18 ± 1.1 | 2.21 ± 0.48
83 | AGGTTA | 1.53 ± 1 | 1.39 ± 0.61 | 0.998 ± 0.84
84 | TCTGCT | 1.85 ± 0.83 | 0.979 ± 0.43 | 0.832 ± 0.068
85 | GAGTCG | – | 0.621 ± 0.4 | –
86 | TCCTTG | – | 3.06 ± 0.64 | 1.3 ± 0.69
87 | GCACTC | 0.672 ± 0.14 | 2.2 ± 0.92 | 0.481 ± 0.091
88 | TTTACC | 1.47 ± 0.88 | 2.36 ± 0.69 | 1.75 ± 0.022
89 | TTTCGC | 2.98 ± 0.12 | 5.72 ± 2.5 | 3.83 ± 0.72
90 | CTCGCC | 4.36 ± 1.6 | – | 5.23 ± 1.7
91 | TGTCCG | – | 1.41 ± 0.048 | 0.289 ± 0.26
92 | GTCTAC | 4.47 ± 0.65 | 10.1 ± 4.8 | 6.86 ± 2.4
93 | CAAGTC | 0.799 ± 0.27 | 1.21 ± 0.051 | 1.03 ± 0.39
94 | AGTCCC | 2.42 ± 0.049 | 3.09 ± 1.6 | 2.36 ± 1.2
95 | CCCTTG | – | 1.42 ± 0.67 | –
96 | GGCCCA | 1.35 ± 0.049 | 1.26 ± 0.18 | 0.697 ± 0.32
97 | CATGAA | 2.31 ± 0.97 | 3.87 ± 1.4 | 2.74 ± 0.47
98 | ACTTCG | – | 1.07 ± 0.038 | 0.314 ± 0.17
99 | AGTCGC | 2.42 ± 0.72 | 4.61 ± 2.1 | 2.74 ± 0.56
100 | GGTTTA | 1.48 ± 0.69 | 1.52 ± 0.42 | 1.5 ± 0.23
101 | TGGTCT | – | 0.817 ± 0.39 | –
102 | ACAACT | – | 1.07 ± 0.15 | –

From the supplement of paper PMC9433436
